From a collection of fitness landscapes (doi:10.1126/science.1257360)
The other results are listed elsewhere or left out.

B1: PhoQ; a variant is named by its letters at X, in order, P23837 (parent)
chain: MKKLLRLFFPLSLRVRFLLATAAVVLVLSLAYGMVALIGYSVSFDKTTFRLLRGESNLFYTLAKWENNKLHVELPENIDKQSPTMTLIYDENGQLLWAQRDVPWLMKMIQPDWLKSNGFHEIEADVNDTSLLLSGDHSIQQQLQEVREDDDDAEMTHSVAVNVYPATSRMPKLTIVVVDTIPVELKSSYMVWSWFIYVLSANLLLVIPLLWVAAWWSLRPIEALAKEVRELEEHNRELLNPATTRELTSLVRNLNRLLKSERERYDKYRTTLTDLTHSLKTPLXXLQXXLRSLRSEKMSVSDAEPVMLEQISRISQQIGYYLHRASMRGGTLLSRELHPVAPLLDNLTSALNKVYQRKGVNISLDISPEISFVGEQNDFVEVMGNVLDNACKYCLEFVEISARQTDEHLYIVVEDDGPGIPLSKREVIFDRGQRVDTLRPGQGVGLAVAREITEQYEGKIVAGESMLGGARMEVIFGRQHSAPKDE

Variants of: B1
Assay: enrichment ratio after two sorts for PhoP signalling (ratio (wild type AVST 3.29)); higher = more functional
Conditions: with PhoP (E. coli)

Variant | enrichment ratio
NKIC | ≤ 0.25
MLGC | ≤ 0.25
FMSS | ≤ 0.25
PVDA | ≤ 0.25
FKVR | ≤ 0.25
WGEL | ≤ 0.25
PNKR | ≤ 0.25
ELKQ | ≤ 0.25
FQAC | ≤ 0.25
LGQG | ≤ 0.25
ACCT | 5.15
GHIL | ≤ 0.25
FPTM | ≤ 0.25
TTED | ≤ 0.25
AQWH | ≤ 0.25
WGVR | ≤ 0.25
FIPI | ≤ 0.25
LRHP | ≤ 0.25
SPWF | ≤ 0.25
SFEV | ≤ 0.25
DTNA | ≤ 0.25
IPQT | ≤ 0.25
SPRA | ≤ 0.25
PKGK | ≤ 0.25
WVYH | ≤ 0.25
ENPL | ≤ 0.25

Variant | enrichment ratio
VQIG | ≤ 0.25
WFPY | ≤ 0.25
YWHY | ≤ 0.25
IDLD | ≤ 0.25
WFHV | ≤ 0.25
HERV | ≤ 0.25
VKPY | ≤ 0.25
YDHP | ≤ 0.25
FVVK | ≤ 0.25
EMWC | ≤ 0.25
TCTK | 5.27
FAYP | ≤ 0.25
FSWI | ≤ 0.25
NFRQ | ≤ 0.25
PTTE | ≤ 0.25
SDSA | ≤ 0.25
DSHL | ≤ 0.25
YSHI | ≤ 0.25
HDNN | ≤ 0.25
WPWI | ≤ 0.25
KTTG | ≤ 0.25
FCYR | ≤ 0.25
IKNS | ≤ 0.25
IQWG | ≤ 0.25
FDQN | ≤ 0.25
FEPK | ≤ 0.25

Variant | enrichment ratio
RDDD | ≤ 0.25
TFLW | ≤ 0.25
LFYH | ≤ 0.25
IHFI | ≤ 0.25
MIHD | ≤ 0.25
VNKM | ≤ 0.25
SYSR | ≤ 0.25
GLTM | 9.77
VCVF | ≤ 0.25
GFAH | ≤ 0.25
KGPM | ≤ 0.25
PMFI | ≤ 0.25
FPPR | ≤ 0.25
NPIE | ≤ 0.25
MPSA | ≤ 0.25
DLQS | ≤ 0.25
RKFW | ≤ 0.25
PCWT | ≤ 0.25
FYHI | ≤ 0.25
NGNR | ≤ 0.25
TALW | ≤ 0.25
TDWV | ≤ 0.25
ILFT | ≤ 0.25
WLGI | ≤ 0.25
PETI | ≤ 0.25
MMWI | ≤ 0.25

Variant | enrichment ratio
RMCA | ≤ 0.25
WVRM | ≤ 0.25
IKSA | ≤ 0.25
HEES | ≤ 0.25
FNAW | ≤ 0.25
TFEV | ≤ 0.25
HFRY | ≤ 0.25
VAVA | ≤ 0.25
AWLR | ≤ 0.25
KQRM | ≤ 0.25
FYRM | ≤ 0.25
ELMD | ≤ 0.25
RPPS | ≤ 0.25
MGYP | ≤ 0.25
IHNR | ≤ 0.25
SHHV | ≤ 0.25
YQSP | ≤ 0.25
SSTG | 12.4
ANYH | 0.253
DHRR | ≤ 0.25
HYLR | ≤ 0.25
FQQP | 0.586
MKEY | ≤ 0.25
NYFS | ≤ 0.25
QHLN | ≤ 0.25
AFWY | ≤ 0.25

Variant | enrichment ratio
QIFH | ≤ 0.25
PRMW | ≤ 0.25
DFHY | ≤ 0.25
FARD | 0.433
PFTF | ≤ 0.25
QHRP | ≤ 0.25
GIMY | ≤ 0.25
TDWS | ≤ 0.25
DEPK | ≤ 0.25
DHWC | ≤ 0.25
NSSP | ≤ 0.25
VSRH | ≤ 0.25
NKAS | ≤ 0.25
SCME | 7.25
SGDL | ≤ 0.25
EECF | ≤ 0.25
QCLG | 2.4
VQHK | ≤ 0.25
LKHG | ≤ 0.25
TIGS | 15
FRCV | ≤ 0.25
MTFL | 6.57
FYTQ | ≤ 0.25
TMPV | ≤ 0.25
LPRT | ≤ 0.25
QCRF | ≤ 0.25

Variant | enrichment ratio
LGDF | ≤ 0.25
GAGN | ≤ 0.25
QRGG | ≤ 0.25
QLMC | ≤ 0.25
HACK | ≤ 0.25
FGRC | ≤ 0.25
EMRD | ≤ 0.25
DPGM | ≤ 0.25
MQFW | ≤ 0.25
PSCC | ≤ 0.25
NDAN | ≤ 0.25
WETL | ≤ 0.25
HEPS | ≤ 0.25
HHQR | ≤ 0.25
TRWK | ≤ 0.25
PAHQ | ≤ 0.25
FLRC | ≤ 0.25
FTDN | ≤ 0.25
TGNY | 16.9
YIYR | ≤ 0.25
NLWN | ≤ 0.25
HMGN | ≤ 0.25
TITP | ≤ 0.25
